At least one read-out could not be matched to a standard name with certainty.
Tested on: pancreatic ductal adenocarcinoma No. 03
Assay: In vivo antitumor assay, Panc03(sc)
Parameters: species or system mice
Excerpt: Mice: Inbred: C3H/He and NCR-nu; and Hybrids: B6D2F1 (C57BL/6 females×DBA/2 males, CD2F1 (Balb/c females×DBS/2 males) and B6C3fl (C57BL/6×C3H) were bred at Wayne State University from strains obtained from the Frederick Cancer Research Facility, Frederick, Maryland or purchased from commercial suppliers.
Tumors: Murine Tumor: P388 and an adriamycin-resistant (ADR) subline P388/ADR leukemia and the following transplantable solid tumors of mice were used for in vivo testing: B16 melanoma (B16), pancreatic ductal adenocarcinoma No. 03 (Pane 03), colon adenocarcinoma No. 38 (colo 38), lung carcinoma No. 12 (LC 12), mammary ductal adenocarcinoma No. 16/C (Mam16C) and an adriamycin-resistant subline Mam16C/ADR. Human tumor: A single human tumor, mammary carcinoma MX-1 was used for in vivo testing. All tumors are in the Developmental Therapeutics Program frozen tumor respository, maintained by the Biological Testing Branch, Frederick Maryland. Each has a detailed description, code identification number, and list of references at the National Tumor Repository. Murine tumors were maintained in the mouse strain of origin and were transplanted in the appropriate F1 hydrid (or the strain of origin) for therapy trials. Human mammary carcinoma MX-1 (MX1) was maintained as a subcutaneous implant in either athymic Swiss (Cr: NIH(S)-nu) or athymic random bred (NCR-nu) mice and transplanted in NCR-nu for therapy trials.
Chemotherapy: For pancreatic ductal adenocarcinoma No. 3, colon adenocarcinoma No. 38 (colo 38), lung carcinoma No. 12 LC 12) and both adriamycin-sensitive (RP) and-resistant (ADR) mammary ductal adenocarcinoma No. 16 (Mam16) tumors, bilateral tumor implants were used to help ensure a more uniform tumor burden per mouse (thus reducing the requirement for greater numbers of mice per group). The animals necessary to begin an experiment were pooled, implanted bilaterally s.c. on day zero with 30-60 mg tumor fragments using a 12-gauge trocar, and again pooled before randomization to the various treatment and control groups. Chemotherapy was started within three days after tumor implantation while the number of cells per mouse was relatively small (1×10^7 -1×10^8 cells).
Quantitative end points used to assess antitumor activity included % Increased Life Span (% ILS), Tumor Cell Kill (Log10 kill), and Tumor Growth Inhibition (T/C). Long Term Survivors (45 or 60 day) were excluded from calculations of %ILS and Tumor Cell Kill.
The log10 cell kill was calculated from the following formula: [formula] where T-C is the tumor difference in the median day of death between the treated (T) and the control (C) groups and Td is the tumor doubling time (in days), the latter estimated from the best fit straight line from a log-linear growth plot of the control-group tumors in exponential growth. The conversion of the T-C values to log10 cell kill is possible because the Td for tumors regrowing post-treatment approximated the Td values of the tumors in untreated control mice.
Tumors were measured with a caliper once or twice weekly (as needed) until either tumors exceeded 1600 mg or cure was assured. Tumor weights were estimated from two-dimensional measurements: Tumor Weight (mg)=(a×b^2) / 2, where a and b are the tumor length and width (ram) respectively. Measurements were carried out simultaneously in both treatment and control groups. When the control group tumors reached approximately 750-1500 mg in size (median of group), the median tumor weight of each group was determined (including zeros). The T/C value in percent is an indication of antitumor effectiveness. The % T/C was calculated from the following formula for solid murine tumor models: [formula] where T and C are median tumor weights of the treatment and control groups, respectively. A T/C equal to or less than 42% is considered significant antitumor activity. […]

In the case of `Cc1cc(-c2c(F)cc3c4n[nH]c(=O)c-4cn(C4CC4)c3c2F)cc(C)n1` [Example 6], the T/C % (drug sc, qd 16-18, qd 3-13, exp 783) is reported as greater than 100%.

With `Cc1cc(-c2c(F)cc3c4nn(CCCN(C)C)c(=O)c-4cn(C4CC4)c3c2F)cc(C)n1` [Example 14] the T/C % (drug iv, bid 3-13, exp 910) was 16% and the T/C % (drug iv, qd 3-5, exp 895A) was 35%.

`Cc1cc(-c2c(F)cc3c4nn(CCNCCO)c(=O)c-4cn(C4CC4)c3c2F)cc(C)n1` [Example 17] gave a T/C % (drug iv,sc: iv, qd 3,9-11, bid 4-5,12-15, sc, bid 16,18, qd 17,19, exp 988) of 42%.

In the case of `Cc1cc(-c2c(F)cc3c4nn(CCC5CCCN5C)c(=O)c-4cn(C4CC4)c3c2F)cc(C)n1` (stereo not shown) [Example 21], the T/C % (drug iv, qd 3-4, exp 1097) is reported as 35%.

In the case of `Cc1cc(-c2c(F)cc3c4nn(-c5ccccc5)c(=O)c-4cn(C4CC4)c3c2F)cc(C)n1` [Example 22], the T/C % (drug sc, qd 3-7, exp 861) is reported as greater than 100%.

In the case of `COc1ccc(-n2nc3c4cc(F)c(-c5cc(C)nc(C)c5)c(F)c4n(C4CC4)cc-3c2=O)cc1` [Example 23], the T/C % (drug iv, 3-hr continuous infusion, exp 953) is reported as 18% and the T/C % (drug sc, qd3-8, exp 887B) is reported as 18%.

With `Cc1cc(-c2c(F)cc3c4nn(C5CCN(C)CC5)c(=O)c-4cn(C4CC4)c3c2F)cc(C)n1` [Example 50] the T/C % (drug iv, qd 3-14, exp 1086) was 24%.

Molecule `Cc1cc(-c2c(F)cc3c4nn([C@H]5CC[C@@H](N(C)C)CC5)c(=O)c-4cn(C4CC4)c3c2F)cc(C)n1` [Example 51a] has a T/C % (drug iv, qd 3-4,8-12, exp 1005A) of 5%.

With `Cc1cc(-c2c(F)cc3c4nn([C@H]5CC[C@H](N(C)C)CC5)c(=O)c-4cn(C4CC4)c3c2F)cc(C)n1` [Example 51b] the T/C % (drug iv,sc: iv, qd 3-4, 8-14, sc, bid 15, exp 1005A) was 2%.

With `Cc1cc(-c2c(F)cc3c4nn([C@H]5CC[C@@H](N)CC5)c(=O)c-4cn(C4CC4)c3c2F)cc(C)n1` [Example 56a, 2-(Cis-4-Aminocyclohexyl)-5-cyclopropyl-6,8-difluoro-2,5-dihydro-7-(2,6-dimethyl-4-pyridinyl)-3H-pyrazolo-[4,3-c]quinolin-3-one] the T/C % (drug iv, qd 3-4, 8-14, exp 1086) was 21%.

With `Cc1cc(-c2c(F)cc3c4nn([C@H]5CC[C@H](N)CC5)c(=O)c-4cn(C4CC4)c3c2F)cc(C)n1` [Example 56b, 2-(trans-4-aminocyclohexyl)-5-cyclopropyl-6,8-difluoro-2,5 dihydro-7-(2,6-dimethyl-4-pyridinyl)-3H-pyrazolo[4,3-c]quinolin-3-one] the T/C % (drug iv,sc: iv, qd 3-6, bid 7-12, sc, qd 15, bid 13-14, exp 1086) was 42%.

From patent US5334595A, “Pyrazoloquinolones as anticancer agents” (priority 1992, dated 1994)
